# The list shows a part of the results.
# B1: Mermaid3 (Stilbonema majum) (protein)
# chain: MGSSHHHHHHSSGLVPRGSHMAASGWLRSPQGTVVKLYRRSLSWSKADEFCKDVDGRLVVDRTADMHLFLIKNVLKEKKSRVWVGLRRTASHSRTWIWSDGTRQNEGDLDANLWLRDEPNDAAGEEECALFMYSPWEKAWGLNDYLCRGGCRNYQFICEKWIR
# Tests used:
# Test in all cases: glycan array binding signal (z-score within array); higher = stronger binding
# Settings in all cases: glycan notation: IUPAC condensed, linker removed
# [1] = target: Fuc(a1-3)[Gal3S(b1-4)]GlcNAc6S
# Method in brief: (§1)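 Arrays were curated from the Consortium for Functional Glycomics database, 3228 in total, and kept only where the protein sequence was available. Binding is expressed as a within-array Z-score. This score was averaged across arrays of the same protein sequence at different concentrations or buffers and across linkers, and negative values can be read as non-binding.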
# [2] = target: Fuc(a1-3)[GalNAc(b1-4)]GlcNAc
# Method in brief: as §1
# [3] = target: Fuc(a1-3)[GalNAc(b1-4)]GlcNAc6S
# Method in brief: as §1
# Fuc(a1-4)GlcNAc = target: Fuc(a1-4)GlcNAc
# Method in brief: as §1
# Fuc(b1-3)GlcNAc = target: Fuc(b1-3)GlcNAc
# Method in brief: as §1
# Gal(a1-2)Gal = target: Gal(a1-2)Gal
# Method in brief: as §1
# Gal(a1-3)Gal = target: Gal(a1-3)Gal
# Method in brief: as §1
# Gal(a1-3)Gal(b1-3)GlcNAc = target: Gal(a1-3)Gal(b1-3)GlcNAc
# Method in brief: as §1
# [4] = target: Gal(a1-3)Gal(b1-3)GlcNAc(b1-2)Man
# Method in brief: as §1
# [5] = target: Gal(a1-3)Gal(b1-3)GlcNAc(b1-2)Man(a1-3)[Gal(a1-3)Gal(b1-3)GlcNAc(b1-2)Man(a1-6)]Man(b1-4)GlcNAc(b1-4)GlcNAc
# Method in brief: as §1
# [6] = target: Gal(a1-3)Gal(b1-3)GlcNAc(b1-3)GalNAc
# Method in brief: as §1
# [7] = target: Gal(a1-3)Gal(b1-3)GlcNAc(b1-6)GalNAc
# Method in brief: as §1
# [8] = target: Gal(a1-3)Gal(b1-3)[Fuc(a1-4)]GlcNAc(b1-2)Man(a1-3)[Gal(a1-3)Gal(b1-3)[Fuc(a1-4)]GlcNAc(b1-2)Man(a1-6)]Man(b1-4)GlcNAc(b1-4)GlcNAc
# Method in brief: as §1
# Gal(a1-3)Gal(b1-4)Glc = target: Gal(a1-3)Gal(b1-4)Glc
# Method in brief: as §1
# Gal(a1-3)Gal(b1-4)GlcNAc = target: Gal(a1-3)Gal(b1-4)GlcNAc
# Method in brief: as §1
# [9] = target: Gal(a1-3)Gal(b1-4)GlcNAc(b1-2)Man
# Method in brief: as §1
# [10] = target: Gal(a1-3)Gal(b1-4)GlcNAc(b1-2)Man(a1-3)[Gal(a1-3)Gal(b1-4)GlcNAc(b1-2)Man(a1-6)]Man(b1-4)GlcNAc(b1-4)GlcNAc
# Method in brief: as §1
# [11] = target: Gal(a1-3)Gal(b1-4)GlcNAc(b1-3)GalNAc
# Method in brief: as §1
# [12] = target: Gal(a1-3)Gal(b1-4)GlcNAc(b1-6)GalNAc
# Method in brief: as §1
# [13] = target: Gal(a1-3)Gal(b1-4)[Fuc(a1-3)]GlcNAc
# Method in brief: as §1
# [14] = target: Gal(a1-3)Gal(b1-4)[Fuc(a1-3)]GlcNAc(b1-2)Man(a1-3)[Gal(a1-3)Gal(b1-4)[Fuc(a1-3)]GlcNAc(b1-2)Man(a1-6)]Man(b1-4)GlcNAc(b1-4)GlcNAc
# Method in brief: as §1
# Gal(a1-3)GalNAc = target: Gal(a1-3)GalNAc
# Method in brief: as §1
# [15] = target: Gal(a1-3)[Gal(a1-4)]Gal(b1-4)GlcNAc
# Method in brief: as §1
# [16] = target: Gal(a1-4)Gal(b1-3)GlcNAc(b1-2)Man(a1-3)[Gal(a1-4)Gal(b1-3)GlcNAc(b1-2)Man(a1-6)]Man(b1-4)GlcNAc(b1-4)GlcNAc
# Method in brief: as §1
# Gal(a1-4)Gal(b1-4)Glc = target: Gal(a1-4)Gal(b1-4)Glc
# Method in brief: as §1
# Gal(a1-4)Gal(b1-4)GlcNAc = target: Gal(a1-4)Gal(b1-4)GlcNAc
# Method in brief: as §1
# [17] = target: Gal(a1-4)Gal(b1-4)GlcNAc(b1-2)Man(a1-3)[Gal(a1-4)Gal(b1-4)GlcNAc(b1-2)Man(a1-6)]Man(b1-4)GlcNAc(b1-4)GlcNAc
# Method in brief: as §1
# [18] = target: Gal(a1-4)Gal(b1-4)GlcNAc(b1-3)Gal(b1-4)Glc
# Method in brief: as §1
# Gal(a1-4)GlcNAc = target: Gal(a1-4)GlcNAc
# Method in brief: as §1
# Gal(a1-6)Glc = target: Gal(a1-6)Glc
# Method in brief: as §1
# Gal(b1-2)Gal = target: Gal(b1-2)Gal
# Method in brief: as §1
# Gal(b1-3)Gal = target: Gal(b1-3)Gal
# Method in brief: as §1
# Gal(b1-3)Gal(b1-4)GlcNAc = target: Gal(b1-3)Gal(b1-4)GlcNAc
# Method in brief: as §1
# Gal(b1-3)GalNAc = target: Gal(b1-3)GalNAc
# Method in brief: as §1
# [19] = target: Gal(b1-3)GalNAc(a1-3)[Fuc(a1-2)]Gal(b1-4)Glc
# Method in brief: as §1
# [20] = target: Gal(b1-3)GalNAc(a1-3)[Fuc(a1-2)]Gal(b1-4)GlcNAc
# Method in brief: as §1
# Gal(b1-3)GalNAc(b1-3)Gal = target: Gal(b1-3)GalNAc(b1-3)Gal
# Method in brief: as §1
# [21] = target: Gal(b1-3)GalNAc(b1-3)Gal(a1-4)Gal(b1-4)Glc
# Method in brief: as §1
# [22] = target: Gal(b1-3)GalNAc(b1-4)Gal(b1-4)Glc
# Method in brief: as §1
# [23] = target: Gal(b1-3)GalNAc(b1-4)[Neu5Ac(a2-3)]Gal(b1-4)Glc
# Method in brief: as §1
# Gal(b1-3)GlcNAc = target: Gal(b1-3)GlcNAc
# Method in brief: as §1
# [24] = target: Gal(b1-3)GlcNAc(a1-3)Gal(b1-4)GlcNAc
# Method in brief: as §1
# [25] = target: Gal(b1-3)GlcNAc(a1-6)Gal(b1-4)GlcNAc
# Method in brief: as §1
# Gal(b1-3)GlcNAc(b1-2)Man = target: Gal(b1-3)GlcNAc(b1-2)Man
# Method in brief: as §1
# [26] = target: Gal(b1-3)GlcNAc(b1-2)Man(a1-3)[Gal(b1-3)GlcNAc(b1-2)Man(a1-6)]Man(b1-4)GlcNAc(b1-4)GlcNAc
# Method in brief: as §1
binder,measurement,setting,value
B1,glycan array binding signal (z-score),[1],-0.521
same,glycan array binding signal (z-score),[2],0.811
same,glycan array binding signal (z-score),[3],-0.469
same,glycan array binding signal (z-score),Fuc(a1-4)GlcNAc,1.39
same,glycan array binding signal (z-score),Fuc(b1-3)GlcNAc,-0.119
same,glycan array binding signal (z-score),Gal(a1-2)Gal,-0.724
same,glycan array binding signal (z-score),Gal(a1-3)Gal,-0.579
same,glycan array binding signal (z-score),Gal(a1-3)Gal(b1-3)GlcNAc,-0.73
same,glycan array binding signal (z-score),[4],-0.634
same,glycan array binding signal (z-score),[5],0.163
same,glycan array binding signal (z-score),[6],-0.424
same,glycan array binding signal (z-score),[7],-0.522
same,glycan array binding signal (z-score),[8],2.19
same,glycan array binding signal (z-score),Gal(a1-3)Gal(b1-4)Glc,-0.106
same,glycan array binding signal (z-score),Gal(a1-3)Gal(b1-4)GlcNAc,-0.531
same,glycan array binding signal (z-score),[9],-0.275
same,glycan array binding signal (z-score),[10],0.213
same,glycan array binding signal (z-score),[11],-0.64
same,glycan array binding signal (z-score),[12],-0.858
same,glycan array binding signal (z-score),[13],-0.5
same,glycan array binding signal (z-score),[14],-0.164
same,glycan array binding signal (z-score),Gal(a1-3)GalNAc,-0.489
same,glycan array binding signal (z-score),[15],0.067
same,glycan array binding signal (z-score),[16],-0.405
same,glycan array binding signal (z-score),Gal(a1-4)Gal(b1-4)Glc,0.311
same,glycan array binding signal (z-score),Gal(a1-4)Gal(b1-4)GlcNAc,-0.038
same,glycan array binding signal (z-score),[17],1.59
same,glycan array binding signal (z-score),[18],-0.064
same,glycan array binding signal (z-score),Gal(a1-4)GlcNAc,-0.741
same,glycan array binding signal (z-score),Gal(a1-6)Glc,-0.269
same,glycan array binding signal (z-score),Gal(b1-2)Gal,-0.062
same,glycan array binding signal (z-score),Gal(b1-3)Gal,-0.277
same,glycan array binding signal (z-score),Gal(b1-3)Gal(b1-4)GlcNAc,0.587
same,glycan array binding signal (z-score),Gal(b1-3)GalNAc,0.892
same,glycan array binding signal (z-score),[19],0.896
same,glycan array binding signal (z-score),[20],0.49
same,glycan array binding signal (z-score),Gal(b1-3)GalNAc(b1-3)Gal,1.33
same,glycan array binding signal (z-score),[21],-0.2
same,glycan array binding signal (z-score),[22],-0.109
same,glycan array binding signal (z-score),[23],-0.021
same,glycan array binding signal (z-score),Gal(b1-3)GlcNAc,-0.295
same,glycan array binding signal (z-score),[24],-0.698
same,glycan array binding signal (z-score),[25],-0.662
same,glycan array binding signal (z-score),Gal(b1-3)GlcNAc(b1-2)Man,-0.094
same,glycan array binding signal (z-score),[26],-0.627

# Source: the supplement of paper PMC8728848
